Consider 94 compounds from PubChem BioAssay AID485344 (National Center for Advancing Translational Sciences (NCATS), 2010).

In all, about 340,000 compounds went through this assay and about 6,900 (2%) were called active. Cut-off read from the data, not from the text of the source: active = inhibition above about 30%; inactive = below that, where a call was filed. The entries are a selection whose mix differs from that of the whole data set. Entries without a call were filed so in the source.

By inhibition is commonly meant the relative decrease from the control value, in per cent.

The assay has as its target D(2) dopamine receptor (Homo sapiens) (UniProt P14416). The assay is described as follows: HTS Assay for Allosteric Antagonists of the Human D2 Dopamine Receptor: Primary Screen for Antagonists. Note: 0% is about no effect. Particulars: HEK293 TREx D2 cells, calcium flux, dopamine EC80; at 10 µM; stronger effect = higher value. An outline of the steps: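 Measurement of antagonist activity uses fluorescent calcium dye in inducible HEK293 T-REx D2 cells: 10 s baseline, compound addition with 180 s read, EC80 dopamine addition with a further 180 s read.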
Sequence of UniProt P14416 (P14416 whole entry, looked up): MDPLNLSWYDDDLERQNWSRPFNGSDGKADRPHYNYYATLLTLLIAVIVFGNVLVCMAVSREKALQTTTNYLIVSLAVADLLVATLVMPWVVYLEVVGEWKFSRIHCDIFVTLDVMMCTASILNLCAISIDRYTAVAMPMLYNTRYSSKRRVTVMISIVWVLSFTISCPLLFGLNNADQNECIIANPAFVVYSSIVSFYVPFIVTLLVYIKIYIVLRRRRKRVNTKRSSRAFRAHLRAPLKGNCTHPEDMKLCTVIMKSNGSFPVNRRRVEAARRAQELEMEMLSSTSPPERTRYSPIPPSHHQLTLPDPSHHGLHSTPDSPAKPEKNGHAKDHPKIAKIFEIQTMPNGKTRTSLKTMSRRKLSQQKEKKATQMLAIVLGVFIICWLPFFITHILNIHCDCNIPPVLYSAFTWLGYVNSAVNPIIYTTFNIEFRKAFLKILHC
(Calcium assays in cells follow changes in intracellular calcium, usually with a dye or a luminescent sensor.)
`COc1cccc(CNC(=O)C(=O)NCC(c2cccs2)S(=O)(=O)c2ccccc2)c1` (centres undefined): the inhibition is -23.8%.

Regarding `Cc1c(C(=O)OC2CCCCC2)[nH]c2c1C(=O)CC(c1ccc(F)cc1)C2` (centres undefined), the inhibition was -10.6%.

Consider `COc1ccc(-c2[nH]nc3nc(-c4cc(Br)ccc4OC)cc(C(=O)O)c23)cc1`, for which the inhibition is 18%.

Take `O=C(CN1CCCN(Cc2cccc(Cl)c2)S1(=O)=O)Nc1ccc2c(c1)OCCO2`: the inhibition worked out at 9.26%.

In the case of `CC(C)CC(=O)NCC(c1ccc2c(c1)OCO2)N1CCN(c2ccccc2)CC1` (centres undefined), the inhibition was -11.8%.

`Cc1ccc(NC(=O)C2CCN(S(=O)(=O)c3ccc4c(c3)NC(=O)C(C)S4)CC2)cc1C` (centres undefined): the inhibition was active: 57.7%.

As for `COc1ccccc1CN1CCC(CNC(=O)c2cnn(-c3ccccc3Cl)c2C2CCN(C(=O)OC(C)(C)C)CC2)CC1`, the inhibition is -8.14%.

Regarding `CCC(=O)Nc1ccc(Cl)c(-c2nc3ccccc3[nH]2)c1`, the inhibition is 14.8%.

With `Cc1ccc(-n2ncc3c(N4CCCCCC4)ncnc32)cc1Cl`, the inhibition was found to be 11.8%.

For `Cc1cccc(NC(=O)c2ccc(-n3c(C)nnc3C)cc2)c1`, the inhibition is 1.92%.

Take `O=S1(=O)c2ccccc2N(Cc2cccc(F)c2)c2ccccc21`: the inhibition was 9.9%.

Turning to `COc1ccc(NC(=O)c2ccco2)cc1NC(=O)c1cc(Cl)ccc1OC`, the inhibition worked out at 19%.

In the case of `CCCN(CCC)C(=O)Cn1c(=O)n(-c2cccc(C)c2)c(=O)c2c1c1cc(OC)ccc1n2C`, the inhibition was -5.47%.

As to `CSc1ccc(-c2nnn(CC(=O)Nc3sc4c(c3C#N)CCC(C(C)(C)C)C4)n2)cc1` (centres undefined), the inhibition is -9.16%.

In the case of `COc1cccc(-c2cc(C(F)(F)F)nc(NCCc3ccc(OC)c(OC)c3)n2)c1`, the inhibition was -13.4%.

On to `Cc1cccc(CN2CCC(CNC(=O)Cn3ncc4c([nH]c5ccc(C)cc54)c3=O)CC2)c1`, for which the inhibition was -5.77%.

`CCOC(=O)c1cc(S(=O)(=O)NCc2ccc(Cl)cc2)[nH]n1`: the inhibition was -3.43%.

On to `O=C(CCN1CCN(c2ccccc2)CC1)NNC(=O)Cc1c(F)cccc1Cl`, for which the inhibition is active: 60.2%.

For `COc1ccccc1C(=O)Nc1nc2n(n1)C(c1ccc(F)cc1)C=C(c1ccc(Cl)cc1)N2` (centres undefined), the inhibition is -5.82%.

Regarding `Cc1ccccc1CSc1ncc(Cl)c(C(=O)Nc2nc3ccc(F)cc3s2)n1`, the inhibition amounted to 10%.

With `COc1ccccc1C(=O)N/C(=C\c1cn(S(=O)(=O)N(C)C)c2ccccc12)C(=O)NCCCn1ccnc1`, the inhibition was determined as 4.97%.

With `CCc1ccc(CNC(=O)C2CCCN(c3nnc(C)c4c(C)n(-c5ccccc5)nc34)C2)cc1` (centres undefined), the inhibition is -9.02%.

`Cc1cc2n(n1)CCC(=O)N2Cc1ccc(C(=O)Nc2cc(Cl)ccc2C)cc1`: the inhibition is -11.5%.

`COc1ccc(OC)c(NC(=O)C2CCCN(S(=O)(=O)c3ccc4c(c3)CCCC(=O)N4)C2)c1` (centres undefined): the inhibition is 5.99%.

For `COc1ccccc1NC(=O)C1=C(C)Nc2nc(SC)nn2C1c1ccccc1Cl` (centres undefined), the inhibition was -17.7%.

With `Cc1cc2oc(=O)c(CC(=O)NCCc3ccccc3F)c(C)c2c2occ(C(C)(C)C)c12`, the inhibition came to 3.32%.

For `CCOC(=O)c1c(NC(=O)c2ccc(OCC)c(Br)c2)sc2c1CCCC2`, the inhibition came out at 8.77%.

For the compound `CCCCN(C(=O)C1CCC(CNS(=O)(=O)c2cccc3nsnc23)CC1)c1ccccc1` (centres undefined), the inhibition is 16%.

Turning to `CC(=O)Nc1ccc(NC(=O)CN(C)S(=O)(=O)c2ccc3c(c2)CCCC(=O)N3)cc1`, the inhibition came out at 3.91%.

On to `O=c1c2cc3c(cc2nc2sc(Nc4cccc([N+](=O)[O-])c4)nn12)OCO3`, for which the inhibition is -12.5%.

Consider `Cc1ccc(C)c(S(=O)(=O)c2nnn3c2nc(N2CCN(C)CC2)c2sccc23)c1`, for which the inhibition was 1.98%.

For the compound `CCc1c(C)c2cc3c(c(C)c2oc1=O)OCN(CCc1ccccc1F)C3`, the inhibition was found to be 5.28%.

Consider `O=C(CSc1nc2ccccc2nc1Cc1ccc(Cl)cc1)N1CCN(c2ccccc2)CC1`, for which the inhibition was -8.2%.

Regarding `Cc1ccc(-n2ncc(C(=O)NCc3ccco3)c2C2CCN(C(=O)OC(C)(C)C)CC2)cc1C`, the inhibition was 1.69%.

In the case of `COc1cc(NC(=O)c2cc3cc4ccc(C)cc4nc3o2)cc(OC)c1OC`, the inhibition is 10%.

For the compound `O=C(c1ccc2c(c1)N(Cc1ccc(F)cc1)C(=O)c1ccccc1S2(=O)=O)N1CCCCC1`, the inhibition is -6.87%.

With `Cc1ccc(-c2nn3c(C)nnc3c3ccccc23)cc1S(=O)(=O)NCC(C)O` (centres undefined), the inhibition came to 1.07%.

With `CC(C)Cc1cc(CN2CCC(CO)(Cc3ccccc3)CC2)[nH]n1`, the inhibition is active: 47.4%.

In the case of `NC(=O)c1cc(S(=O)(=O)N2CCN(c3cccc(C(F)(F)F)c3)CC2)cs1`, the inhibition was -3.26%.

For `COc1cc(NC(=O)CSc2c3c(nc4ccccc24)CCC3)cc(OC)c1OC`, the inhibition is -2.08%.

Turning to `CCC(=O)N1CCc2cc(S(=O)(=O)NCCC(=O)Nc3ccc(N(CC)CC)cc3C)ccc21`, the inhibition stood at 18%.

Turning to `CCN(CC)S(=O)(=O)c1ccc(C(=O)NCCSc2c(-c3ccccc3)[nH]c3ccccc23)cc1`, the inhibition is -7.39%.

For the compound `Cc1cc(C)cc(NC(=O)Cc2noc3ccccc23)c1`, the inhibition turned out to be 15%.

As for `O=C(c1ccccc1)N1c2nc(-c3ccco3)nn2C2(CCCCC2)[C@@H]2CCCC[C@@H]21`, the inhibition is -3.76%.

With `Cc1ccc(C2CC(c3ccccc3)=NN2c2ccccc2)o1` (centres undefined), the inhibition is active: 35.6%.

For `Cc1ccccc1OCc1ccc(-c2nc(C#N)c(N3CCN(c4cccc(Cl)c4)CC3)o2)o1`, the inhibition came to 7.41%.

As for `Cc1cc(C)cc(NC(=O)C(Cc2ccccc2)NS(=O)(=O)c2ccc3c(c2)CCC(=O)N3)c1` (centres undefined), the inhibition is -16.4%.

With `CCOc1ccccc1NC(=O)C(=O)Nc1ccc2nc3n(c(=O)c2c1)CCCCC3`, the inhibition was determined as 0.678%.

For the compound `OCc1cnc(SCc2ccccc2F)n1Cc1ccc(F)cc1`, the inhibition is 2.79%.

As to `CCCOc1ccc(CNC(=O)C(NS(=O)(=O)c2cccs2)C(C)C)cc1` (centres undefined), the inhibition worked out at 11.5%.

In the case of `COc1cc(Cl)c(C)cc1NC(=O)c1cnc(N2CCCCC2)c2ccccc12`, the inhibition is -6.23%.

For the compound `COc1cc2nc(SCc3ccc(C)cc3)n3nc(CCn4nc(C)cc4C)nc3c2cc1OC`, the inhibition was 18.3%.

Take `CC(C)Cn1c(-c2cccc(Br)c2)nc2ccccc21`: the inhibition amounted to 5.09%.

As for `COC(=O)C(CCSC)Nc1ncnc2onc(-c3ccc(F)cc3)c12` (centres undefined), the inhibition was -3.15%.

For `Cc1ccc(CNC(=O)C(=O)NCC(c2ccc3c(c2)OCO3)N2CCOCC2)cc1` (centres undefined), the inhibition amounted to 20.1%.

In the case of `CCOC(=O)C1(C)C=C(Nc2cccc(C(=O)O)c2)C(=O)N1c1ccccc1` (centres undefined), the inhibition came out at 20.2%.

Regarding `CC1Cc2ccccc2N1C(=O)Cn1cc([N+](=O)[O-])cn1` (centres undefined), the inhibition was active: 38.7%.

With `Cc1ccc2c(=O)cc(C(=O)Nc3c(C)n(C)n(-c4ccccc4)c3=O)oc2c1`, the inhibition was found to be 17.3%.

With `Cc1n[nH]c(C)c1S(=O)(=O)N1CCC(C(=O)N2CCn3c2nc2ccccc23)CC1`, the inhibition is active: 39.3%.

`COc1ccccc1N1CCN(C(=O)C2CCCN(S(=O)(=O)c3ccc4c(c3)CCCN4C(C)=O)C2)CC1` (centres undefined): the inhibition amounted to 3.43%.

On to `Cc1ccc(Nc2ncnc3sc4c(c23)CCC(C)C4)cc1C` (centres undefined), for which the inhibition is -7.48%.

Take `Cc1ccc(NC(=O)c2ccc(NC(=O)CCS(=O)(=O)c3cccs3)cc2)cc1F`: the inhibition is -0.276%.

In the case of `Cc1ccc(S(=O)(=O)N(C)C)cc1NC(=O)CN1c2cccc3cccc(c23)S1(=O)=O`, the inhibition was active: 37%.

Turning to `COc1cccc(Cn2cc(C(=O)c3ccc(Cl)cc3)c(=O)c3ccccc32)c1`, the inhibition was -17.5%.

Regarding `Cc1ccccc1Nc1c(-c2ccc(N3CCOCC3)cc2)nc2ccc(Br)cn12`, the inhibition is -9.15%.

Regarding `O=C(CCN1C(=O)COc2ccccc21)NCCCN1CCN(c2ccccc2F)CC1`, the inhibition is active: 82%.

On to `CCSc1ncc(Cl)c(C(=O)Nc2cccc(Cl)c2)n1`, for which the inhibition was determined as 5.97%.

Take `CNC(=O)CN1C(=O)COc2ccc(S(=O)(=O)N3CCC(C)CC3)cc21`: the inhibition worked out at 6.99%.

With `COCCNC(=O)c1ccccc1NC(=O)c1nsc2ccccc12`, the inhibition was -13.7%.

On to `Cc1ccc(-n2cnnn2)cc1S(N)(=O)=O`, for which the inhibition is -6.81%.

On to `COc1ccc2[nH]cc(CCN=C(NC(=O)c3ccccc3OC)Nc3nc(C)cc(C)n3)c2c1`, for which the inhibition came out at 6.89%.

With `Cc1cc2[nH]c(=O)c(=O)[nH]c2cc1S(=O)(=O)N1CCN(c2cccc(Cl)c2)CC1`, the inhibition was 1.61%.

With `COC(=O)Cn1c(SCCOc2ccccc2OC)nc2ccccc21`, the inhibition is -3.56%.

`CN1C(=O)C2(C(C#N)=C(N)N(c3cc(Cl)cc(Cl)c3)C3=C2C(=O)CC(C)(C)C3)c2ccccc21` (centres undefined): the inhibition was active: 33.1%.

In the case of `Cc1nc2cccnc2n1C1CCN(C(=O)Nc2ccc(Cl)cc2)CC1`, the inhibition was determined as 3.13%.

With `CCc1c(C)sc2c1CCN(Cc1ccccc1F)C2c1ccccc1` (centres undefined), the inhibition is -7.49%.

Regarding `CCOc1ccc(-c2c(C)nn3c(C)c(C(=O)NCCc4ccc(C)cc4)cnc23)cc1OCC`, the inhibition was -10.8%.

On to `COC(=O)Cc1c(C)c2ccc3c(c2oc1=O)CN(Cc1ccccc1Cl)CO3`, for which the inhibition was -4.64%.

Turning to `O=C(NCCSc1c[nH]c2ccccc12)c1ccccc1Cl`, the inhibition is -10.5%.

Regarding `c1ccc(-c2cc3n(c2)CCc2ccccc2-3)cc1`, the inhibition was active: 33.1%.

With `Cc1cccc(-n2c(=O)c3ccccc3n(Cc3ccc(F)cc3)c2=O)c1`, the inhibition was determined as 16.6%.

In the case of `CCc1ccc(Nc2nc3ccccc3nc2NS(=O)(=O)c2ccccc2)cc1`, the inhibition was determined as 1.04%.

`Nc1nc(CN2CCN(c3ccccc3F)CC2)nc(Nc2ccccc2)n1`: the inhibition is active: 47.3%.

For `Cc1cc2c(cc1S(=O)(=O)Nc1cc(C(F)(F)F)cc(C(F)(F)F)c1)OCC(=O)N2`, the inhibition is -10.9%.

With `Cc1ccc(NC(=O)/C=C/c2ccccc2Cl)cc1Cl`, the inhibition is -22.8%.

`CCCCOC(=O)c1ccc(NC(=O)c2sc3nc(C)cc(C)c3c2N)cc1`: the inhibition was 4.26%.

Take `O=C(Cn1c(=O)nc(-c2ccccc2)c2ccccc21)Nc1ccc(Cl)cc1F`: the inhibition was determined as 13.6%.

Turning to `COc1ccc(NC(=O)C2=C(C)Nc3nc(SCc4ccc(Cl)cc4)nn3C2c2cccc(OC)c2OC)cc1` (centres undefined), the inhibition is -0.783%.

For `COc1ccc(N(C)C(=O)Cn2cc(S(=O)(=O)N3CCN(c4ccccc4F)CC3)c3ccccc3c2=O)c(OC)c1`, the inhibition worked out at 7.48%.

In the case of `CC1CCN(c2ccc(-c3cccc(NS(=O)(=O)c4ccc(F)cc4F)c3)nn2)CC1`, the inhibition was -7.4%.

As for `CCOC(=O)c1sc(NC(=O)c2c(-c3ccccc3)c(-c3ccccc3)nn(C)c2=O)nc1C`, the inhibition was 20.3%.

Consider `CC1CCN(C(=O)CSc2nc(-c3ccc(F)cc3)cc(C(F)(F)F)n2)CC1`, for which the inhibition was found to be 6.38%.

`CCOC(=O)c1ccc(NC(=O)c2cn3c4c(ccc(Cl)c4c2=O)OC(C)C3)cc1` (centres undefined): the inhibition stood at 12.5%.

As to `COc1ccc(S(=O)(=O)N2CCN(c3ccccc3OC)CC2)cc1`, the inhibition turned out to be 7.75%.
